Data taken from PubChem BioAssay AID2546 (National Center for Advancing Translational Sciences (NCATS), 2010).
Several values for one entry are separate records, joined by “and”; a condition that tells them apart may be missing. Equal entries are not always repeated. In all, about 310,000 compounds went through this assay and about 11,000 (3.5%) were called active. The shares of active, inactive and inconclusive entries below differ from those in the screen. Calls follow the shape of the dose curve; as a rule, active = well fitted inhibition curve with a large enough effect; inconclusive = small, poorly fitted or top-dose-only effect, or effect the other way; inactive = flat fitted curve, though single readings scatter. A potency beside an inconclusive call is a rough fit, not a confirmed value.
% is scaled to controls: 0 for no effect and ±100 for the full control effect; potency is read from the fitted curve at half-maximal effect; tags tell the direction and shape of the fitted curve.

Assay: VP16 counterscreen qHTS for inhibitors of ROR gamma transcriptional activity;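 also: Gal4-VP16 expression switched on by copper sulfate through the metallothionein promoter; nearly all actives have a fitted effect of over 50% in size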
Settings: Drosophila S2 Gal4-VP16 UAS-luciferase, luminescence, 20 h; activity, negative = inhibition: at 53.6 µM (top of the series)
In the case of `CCC(C)(C)n1nnnc1C(c1cc2cccc(C)c2[nH]c1=O)N1CCCC1` (centres undefined), the Potency is reported as inconclusive: 20 µM [activator, single point].
In the case of `O=C(Oc1ccc(Cl)c2cccnc12)c1cccnc1`, the Potency is reported as active: 1 µM.
With `CCCCCn1c(SCCN2CCOCC2)nc2c1c(=O)[nH]c(=O)n2C` the “activity, negative = inhibition” value was inactive: -3.58%.
In the case of `Cn1c(CCc2nc3ccccc3[nH]2)nnc1SCC#N`, the Potency is reported as inconclusive: 22.4 µM [inhibitor, single point].
With `O=C(N/N=C/C=C/c1ccc([N+](=O)[O-])cc1)c1cccs1` the Potency was inconclusive: 11.2 µM [inhibitor, partial curve].
In the case of `Cc1ccc(CNC(=O)C(=O)c2cn(CC(=O)N3CCCC3)c3ccccc23)cc1`, the Potency is reported as inconclusive: 3.98 µM [activator, partial curve].
With `Cc1cccc(/C=C2\Oc3cc(OS(C)(=O)=O)ccc3C2=O)c1` the Potency was inconclusive: 6.31 µM [activator, single point].
In the case of `CC(=O)Nc1ccc(S(=O)(=O)Nc2ccc(Cc3ccncc3)cc2)cc1`, the Potency is reported as active: 10 µM.
With `c1ccc2[nH]c(CN3CCCCC3)nc2c1` the Potency was inconclusive: 15.8 µM [inhibitor, single point].
In the case of `COc1ccc(S(=O)(=O)Nc2ccccc2-c2nnn(CC(=O)Nc3ccccc3OC)n2)cc1`, the Potency is reported as inconclusive: 1 µM [inhibitor, single point].
In the case of `CCn1c(SCc2ccccc2)nc2c1c(=O)[nH]c(=O)n2C`, the “activity, negative = inhibition” value is reported as inactive: -2.1%.
In the case of `C/C(=C\c1cccc(Cl)c1)C(=O)c1c(C)cc(C)[nH]c1=O`, the Potency is reported as inconclusive: 35.5 µM [inhibitor, single point].
With `CCCCn1c(SCC(=O)NCc2ccco2)nc2c(sc3ccccc32)c1=O` the “activity, negative = inhibition” value was inactive: -10.7%.
For `Cc1ccc(NC(=O)C2(S(=O)(=O)c3ccc(C)cc3)CC2)cc1`, the Potency was inconclusive: 12.6 µM [inhibitor, single point].
With `COc1cc(N=c2ssnc2Cl)c(OC)cc1Cl` the Potency was active: 25.1 µM.
For `CCCCNC(=O)CSc1nc2ccc(N3CCOCC3)cc2c(=O)n1CCc1ccccc1`, the Potency was active: 7.94 µM.
In the case of `CC(C)c1ccc(-n2cnn(-c3ncccc3[N+](=O)[O-])c2=O)cc1`, the activity, negative = inhibition is reported as inactive: -6.74% [at 10 µM].
With `CCOc1ccc(NC(=O)Cn2nnc(C(=O)NCCc3ccc(OC)c(OC)c3)c2N)cc1` the “activity, negative = inhibition” value was inactive: 0.299%.
With `O=C(COc1cccnc1[N+](=O)[O-])c1ccc(Cl)s1` the Potency was inconclusive: 22.4 µM [inhibitor, single point].
In the case of `Cc1cc(=O)oc2cc(OCC(=O)N3CCN(C(=O)C4COc5ccccc5O4)CC3)c(Cl)cc12` (centres undefined), the Potency is reported as inconclusive: 4.47 µM [inhibitor, single point].
For `Cc1nc(NC(=S)NC(=O)c2ccccc2)sc1C`, the Potency was inconclusive: 4.47 µM [inhibitor, full curve, poor fit].
In the case of `COc1ccc(CC(=O)NC2CCCc3ccccc32)cc1` (centres undefined), the “activity, negative = inhibition” value is reported as inactive: -12.2%.
In the case of `COc1ccccc1-n1c(SCC(=O)N2CCCCC2)nc2cccnc21`, the “activity, negative = inhibition” value is reported as inactive: -3.19%.
With `O=C(C[n+]1ccccc1)Nc1cc(C(F)(F)F)ccc1Cl` the Potency was inconclusive: 1.78 µM [inhibitor, partial curve].
For `CCOc1ccc(NC(=O)Cn2ncc3ccccc32)cc1`, the Potency was inconclusive: 2.24 µM [activator, partial curve].
With `O=S(=O)(NCc1ccccn1)c1ccc(Br)s1` the Potency was inconclusive: 20 µM [inhibitor, single point].
For `CCOc1ccc2nc(N3C(=O)/C(=C/c4ccc(Cl)cc4)NC3=S)sc2c1`, the Potency was active: 1.58 µM.
In the case of `O=C(O)CCc1ccc(-c2ccc(Cl)cc2)n1Cc1ccco1`, the “activity, negative = inhibition” value is reported as inactive: 21.5%.
In the case of `Cc1cc2c(nc1C)CCCN2C[C@@H](C)O/N=C1/[C@H]2CCn3c(=O)n(-c4ccccc4)c(=O)n3[C@H]2[C@H](O)[C@@H]2O[C@H]12`, the Potency is reported as inconclusive: 1 µM [activator, partial curve, poor fit].
For `CCOCCCn1c(=S)[nH]c2cc3c(cc2c1=O)OCO3`, the Potency was active: 2.51 µM.
For `Cn1cc(Cl)c(C(=O)Nc2cccc(Cl)c2Cl)n1`, the Potency was inconclusive: 22.4 µM [inhibitor, single point].
With `CC(C)c1ccc(NC(=S)NC2CCN(Cc3ccccc3)CC2)cc1` the Potency was inconclusive: 35.5 µM [inhibitor, single point].
In the case of `CC(C)OC(=O)c1c2c(n3ccccc13)C(=O)c1ccccc1C2=O`, the “activity, negative = inhibition” value is reported as inactive: -12.1%.
For `CCCCn1c(-c2csc(C(C)C)c2)n[nH]c1=S`, the Potency was inconclusive: 10 µM [inhibitor, partial curve].
With `COCC(=O)N=Nc1c(O)[nH]c2ccccc12` the Potency was inconclusive: 5.62 µM [activator, single point].
With `CCOC(=O)c1c(NC(=O)C[n+]2ccc(Cc3ccccc3)cc2)sc(C)c1C` the Potency was inconclusive: 22.4 µM [inhibitor, partial curve, poor fit].
For `Cc1cc(C)n(-c2ccc(Cl)c(C(=O)Nc3cc(C(F)(F)F)ccc3Cl)n2)n1`, the Potency was inconclusive: 5.62 µM [activator, single point].
For `COc1ccc(CC(=O)NNC(=O)CSc2nnc(Cc3ccc(OC)cc3)n2-c2ccccc2)cc1`, the Potency was inconclusive: 5.62 µM [activator, single point].
For `S=C(NCc1ccccc1)NCc1ccc(Cl)cc1`, the Potency was inconclusive: 35.5 µM [inhibitor, single point].
In the case of `COc1cccc(NC(=O)c2ccc3c(c2)OCCO3)c1`, the Potency is reported as inconclusive: 1 µM [inhibitor, full curve].
For `CCCCCOc1ccc(Br)cc1CSC(=N)N`, the Potency was active: 7.08 µM.
With `Brc1ccccc1CN1CCC(Cc2ccccc2)CC1` the Potency was inconclusive: 31.6 µM [inhibitor, single point].
In the case of `Cc1cc(NC(=O)CCC2COc3ccccc3O2)no1` (centres undefined), the Potency is reported as inconclusive: 15.8 µM [activator, single point].
In the case of `C=CCn1c(-c2cccc(OC)c2)n[nH]c1=S`, the Potency is reported as inconclusive: 35.5 µM [inhibitor, single point].
For `Cc1ccc(NS(=O)(=O)c2ccc3c(c2)C(=O)c2ccccc2C3=O)c(C)c1`, the Potency was inconclusive: 35.5 µM [inhibitor, single point].
With `CCc1ccc(NC(=O)C2CCN(S(=O)(=O)c3ccc4c(c3)CC(C)N4C(C)=O)CC2)cc1` (centres undefined) the Potency was inconclusive: 35.5 µM [inhibitor, single point].
With `CC(NCCC(c1ccccc1)c1ccccc1)c1ccccc1` (centres undefined) the Potency was “inactive and inconclusive: 35.5 µM [inhibitor, single point]”.
With `CC(C)n1c(SCC(=O)N2CCN(C)CC2)nc2c1c(=O)n(C)c(=O)n2C` the “activity, negative = inhibition” value was inactive: 8.79%.
For `CCN1CCN(Cc2ccc(NC(=O)c3cc(NC(=O)c4cc5cccc(OC)c5o4)cc(OC)c3)cc2C(F)(F)F)CC1`, the Potency was inconclusive: 25.1 µM [inhibitor, single point].
In the case of `COc1cc(CNn2c(C)n[nH]c2=S)cc(Cl)c1OCc1ccc(F)cc1`, the Potency is reported as inconclusive: 35.5 µM [inhibitor, single point].
In the case of `C/C(=N\NC(=O)C(=O)Nc1c(C)n(C)n(-c2ccccc2)c1=O)c1ccncc1`, the “activity, negative = inhibition” value is reported as inactive: 3.72%.
With `COc1ccc(OC)c(Nc2nc(-c3ccc(O)c(O)c3)cs2)c1` the Potency was active: 8.91 µM.
For `CC(C)C[C@H](NC(=O)c1nc[nH]c1C(=O)NC1CCN(C(=O)OC(C)(C)C)CC1)C(=O)OCc1ccccc1`, the Potency was inconclusive: 3.16 µM [inhibitor, single point].
With `FC(F)(F)c1ccccc1-c1ccc2ncnc(NCc3cccs3)c2c1` the Potency was inconclusive: 35.5 µM [inhibitor, single point].
With `CC(C)(C)SCCNC(=O)/C=C/c1ccc(F)cc1` the “activity, negative = inhibition” value was inactive: -11.4%.
In the case of `C=CCSc1nsc(NC(=O)Nc2ccc(F)cc2)n1`, the Potency is reported as active: 3.55 µM.
In the case of `CC(C)(C)C(=O)NC(=S)Nc1ccc(Cc2ccncc2)cc1`, the Potency is reported as active: 12.6 µM.
For `CC(C)C[C@H](NC(=O)c1nc[nH]c1C(=O)NCc1ccc(CNC(=O)OC(C)(C)C)cc1)C(=O)OCc1ccccc1`, the Potency was inconclusive: 35.5 µM [inhibitor, single point].
In the case of `Cc1cccc(C)c1NC(=S)NC(=O)CCc1ccccc1`, the Potency is reported as active: 10 µM.
For `CSc1ccc(S(=O)(=O)Nc2ccc3c(c2)NC(=O)CC3)cc1`, the Potency was inconclusive: 35.5 µM [inhibitor, single point].
With `COc1ccc(C2C(C#N)=C(N)Oc3c2ccc2cccnc32)cc1OC` (centres undefined) the Potency was inconclusive: 20 µM [activator, single point].
In the case of `COC(=O)c1ccc(C(NC(=O)OCc2ccccc2)/C(F)=C/[C@@H](C)C(=O)Nc2ccc(OC)cc2)cc1` (some centres undefined), the Potency is reported as inconclusive: 35.5 µM [inhibitor, single point].
In the case of `N#CCC(CNc1ncc(C(F)(F)F)cc1Cl)OC(=O)c1ccc(Cl)cc1Cl` (centres undefined), the Potency is reported as inconclusive: 22.4 µM [inhibitor, single point].
For `CCCCCCOC(=O)C(C#N)c1nc2ccccc2nc1N1CCOCC1` (centres undefined), the “activity, negative = inhibition” value was inactive: 0.549%.
With `Cc1ccccc1C(=O)NC(=S)Nc1ccc(S(=O)(=O)N2CCN(C)CC2)cc1` the Potency was inconclusive: 35.5 µM [inhibitor, single point].
For `COc1ccccc1NC(=O)c1ccc(NC(=O)COC(=O)C2(C)CC2(Cl)Cl)cc1` (centres undefined), the Potency was inconclusive: 35.5 µM [inhibitor, single point].
In the case of `CCC(C)n1c(SCC(=O)NC(=O)Nc2ccc3c(c2)OCCO3)nc2ccccc2c1=O` (centres undefined), the Potency is reported as inconclusive: 0.0708 µM [activator, full curve, poor fit].
With `COc1ccc(/C=C2\SC(=S)N(CCCC(=O)NNC(=O)c3ccccc3O)C2=O)cc1` the Potency was active: 1.58 µM.
For `CCCCOP(=O)(c1ccc(N(C)C)cc1)C(Nc1ccccc1)c1ccccc1` (centres undefined), the “activity, negative = inhibition” value was inactive: -10.8%.
